According to the supplement of paper PMC9446081:
In all, about 39,000 compounds went through this assay and about 220 (0.56%) showed activity. The list shows a part of the results.

tested on: Escherichia coli K-12 BW25113; test: relative growth (OD600 normalised to plate interquartile mean) (fraction); higher = less growth inhibition, active = 0.2 or less; conditions: 50 µM; LB; incubation time: overnight (16-24 h)
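Note: static incubation at 37 °C against the wild-type strain, values averaged over two biological replicates.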

Compound | relative growth
C[C@@H]1CN([C@H](C)CO)C(=O)CCCn2nncc2CO[C@H]1CN(C)S(C)(=O)=O | inactive: 0.979
Cc1noc(C)c1NC(=O)Nc1ccc2c(c1)C(=O)N([C@@H](C)CO)C[C@H](C)[C@@H](CN(C)Cc1ccc(-c3ccccc3)cc1)O2 | inactive: 0.997
Cc1ccc(S(=O)(=O)N(C)C[C@H]2Oc3c(NC(=O)Nc4ccc(C(F)(F)F)cc4)cccc3C(=O)N([C@H](C)CO)C[C@H]2C)cc1 | inactive: 0.883
C[C@H](CO)N1C[C@H](C)[C@@H](CN(C)S(=O)(=O)c2ccc(F)cc2)OCCCC[C@H](C)Oc2ccc(NC(=O)CCC(F)(F)F)cc2C1=O | inactive: 1.01
CN(C)CCCNC(=O)C[C@@H]1C=C[C@H](NS(=O)(=O)c2ccccc2)[C@@H](CO)O1 | inactive: 0.985
Cc1ccc(S(=O)(=O)N(C)C[C@@H]2Oc3ccc(NS(=O)(=O)c4cccs4)cc3C(=O)N([C@@H](C)CO)C[C@@H]2C)cc1 | inactive: 1.01
O=C(O)CSC(=S)N1CCOCC1 | inactive: 1.04
C[C@H](CO)N1C[C@H](C)[C@H](CN(C)C(=O)Nc2ccc(C(F)(F)F)cc2)Oc2ccc(NC(=O)Cc3ccccc3)cc2C1=O | inactive: 0.977
O=C(O)c1ccc(OC[C@@H](O)CO[C@H](COc2ccc(C(=O)O)cc2)Cn2c3ccccc3c3ccccc32)cc1 | inactive: 0.996
Cc1cc(F)ccc1S(=O)(=O)N1[C@@H]2CC[C@@H](C2)[C@H]1c1nc2cccc(OCc3ccc(F)cc3)c2[nH]1 | inactive: 0.994
C[C@@H]1CCCCO[C@@H](CN(C)S(=O)(=O)c2ccccc2)[C@@H](C)CN([C@H](C)CO)C(=O)c2cc(NS(C)(=O)=O)ccc2O1 | inactive: 0.965
Cc1noc(C)c1NC(=O)Nc1ccc2c(c1)C(=O)N([C@H](C)CO)C[C@@H](C)[C@H](CN(C)S(=O)(=O)c1cn(C)cn1)O2 | inactive: 1.01
C[C@@H]1CN([C@@H](C)CO)C(=O)Cc2cc(NC(=O)Nc3ccccc3)ccc2O[C@@H]1CN(C)C(=O)Nc1ccc(C(F)(F)F)cc1 | inactive: 1
CC1(C)C=Cc2cc3ccc(=O)oc3cc2O1 | inactive: 1.02
Cc1ccccc1S(=O)(=O)N1C[C@@H](O)COC[C@@H]2O[C@H](CC(=O)N3CCC(Cc4ccccc4)CC3)CC[C@H]21 | inactive: 1
O=C(C[C@@H]1C=C[C@H](NC(=O)CN2CCOCC2)[C@@H](CO)O1)NCCc1ccncc1 | inactive: 0.995
CC(C)(C)OC(=O)CC[C@]12N=C(c3ccc(OCCCO)cc3)O[C@H]1c1ccccc1CN(Cc1ccccc1)C2=O | inactive: 1.01
O=c1ccc2ccccc2o1 | inactive: 1.12
C[C@H](CO)N1C[C@H](C)[C@H](CN(C)Cc2ccncc2)Oc2c(NC(=O)Nc3ccc(C(F)(F)F)cc3)cccc2C1=O | inactive: 0.945
C[C@H](CO)N1C[C@H](C)[C@H](CN(C)S(=O)(=O)c2ccc(F)cc2)OCCCC[C@H](C)Oc2ccc(NC(=O)Nc3ccc(F)cc3)cc2C1=O | inactive: 1.01
CC(C)NC(=O)N(C)C[C@H]1Oc2c(NC(=O)NC3CCCCC3)cccc2C(=O)N([C@H](C)CO)C[C@@H]1C | inactive: 0.984

Compound | relative growth
C[C@H](CO)N1C[C@H](C)[C@H](CN(C)C(=O)C2CC2)Oc2cc(-c3ccc(C(=O)N(C)C)cc3)ccc2S1(=O)=O | inactive: 0.976
C=CCNC(=O)[C@H]1[C@@H]2C(=O)O[C@@H](c3ccccc3)[C@@H](c3ccccc3)N2[C@@H](c2ccc(OCCO)cc2)[C@]12C(=O)Nc1ccc(C#Cc3ccc(OC)cc3)cc12 | inactive: 1.08
C[C@@H]1CN([C@H](C)CO)C(=O)c2cc(NS(=O)(=O)c3ccc(Cl)cc3)ccc2O[C@@H](C)CCCCO[C@@H]1CN(C)S(=O)(=O)c1ccccc1 | inactive: 1.05
CC(C)NC(=O)Nc1ccc2c(c1)C(=O)N([C@@H](C)CO)C[C@H](C)[C@@H](CN(C)S(=O)(=O)c1cn(C)cn1)O2 | inactive: 0.98
C[C@H](CO)N1C[C@H](C)[C@@H](CN(C)C(=O)Nc2ccc3c(c2)OCO3)OCCCC[C@H](C)Oc2ccc(NC(=O)Nc3ccc(F)cc3)cc2C1=O | inactive: 1.03
CC(C)NC(=O)Nc1ccc2c(c1)CC(=O)N([C@H](C)CO)C[C@@H](C)[C@@H](CN(C)Cc1ccc(-c3ccccc3)cc1)O2 | inactive: 0.973
C[C@@H]1CN([C@H](C)CO)C(=O)c2cc(NC(=O)CCCN(C)C)ccc2O[C@H]1CN(C)S(=O)(=O)c1ccc(F)cc1 | inactive: 0.978
C[C@@H]1CCCCO[C@@H](CN(C)S(=O)(=O)c2ccc(F)cc2)[C@H](C)CN([C@@H](C)CO)C(=O)c2cc(NC(=O)Nc3ccc(C(F)(F)F)cc3)ccc2O1 | inactive: 1.03
CN(C)Cc1ccc([C@@H](N)c2ccncc2)cc1 | inactive: 0.968
C[C@@H]1CN([C@@H](C)CO)S(=O)(=O)c2ccc(C#Cc3ccccc3)cc2O[C@@H]1CN(C)C(=O)CN(C)C | inactive: 1.01
C[C@@H]1CN([C@H](C)CO)S(=O)(=O)c2ccc(-c3cccc(C#N)c3)cc2O[C@@H]1CN(C)C(=O)c1ccncc1 | inactive: 1
C[C@H]1CCCCO[C@H](CN(C)S(=O)(=O)c2ccc(F)cc2)[C@@H](C)CN([C@@H](C)CO)C(=O)c2cc(NC(=O)c3ccccc3)ccc2O1 | inactive: 1.02
Cc1noc(C)c1S(=O)(=O)N(C)C[C@H]1Oc2ccc(N(C)C)cc2CC(=O)N([C@H](C)CO)C[C@H]1C | inactive: 0.994
Cc1nccn1CCN | inactive: 0.987
Clc1ccc(C(c2ccc(Cl)cc2)[n+]2ccn(C[C@@H](OCc3ccc(Cl)cc3Cl)c3ccc(Cl)cc3Cl)c2)cc1 | inactive: 0.421
CCN(CC)c1ccc(CN)cn1 | inactive: 0.975
C[C@@H]1CCCCO[C@@H](CN(C)C(=O)Nc2ccc(F)cc2)[C@@H](C)CN([C@@H](C)CO)C(=O)c2cc(NC(=O)C3CCCCC3)ccc2O1 | inactive: 0.998
C[C@@H]1CN([C@@H](C)CO)C(=O)Cc2cc(NC(=O)Cn3cnnn3)ccc2O[C@H]1CN(C)C(=O)NC1CCCCC1 | inactive: 0.995
Cc1noc(C)c1S(=O)(=O)Nc1cccc2c1O[C@H](CN(C)Cc1ccc(Oc3ccccc3)cc1)[C@H](C)CN([C@@H](C)CO)C2=O | inactive: 0.972
C[C@@H]1CCCCO[C@H](CN(C)Cc2ccc3c(c2)OCO3)[C@H](C)CN([C@H](C)CO)C(=O)c2cc(NS(=O)(=O)c3ccc(F)cc3)ccc2O1 | inactive: 1.01
c1cc(-c2nnc(Cn3cncn3)[nH]2)ccn1 | inactive: 0.923

Compound | relative growth
COc1ccc(S(=O)(=O)N(C)C[C@H]2Oc3ccc(NS(C)(=O)=O)cc3C(=O)N([C@H](C)CO)C[C@H]2C)cc1 | inactive: 0.999
C[C@@H]1CN([C@H](C)CO)C(=O)c2cccc(NC(=O)C3CCOCC3)c2O[C@@H]1CN(C)S(=O)(=O)c1ccccc1 | inactive: 1
CCCNC(=O)C[C@H]1CC[C@H]2[C@@H](COc3ccc(NS(=O)(=O)c4ccccc4C)cc3C(=O)N2C)O1 | inactive: 1
CC(C)NC(=O)Nc1ccc2c(c1)C(=O)N([C@H](C)CO)C[C@H](C)[C@@H](CN(C)C(=O)Nc1ccc(F)cc1)OCCCC[C@H](C)O2 | inactive: 0.995
Cc1noc(C)c1NC(=O)N(C)C[C@@H]1Oc2ccc(NS(=O)(=O)c3ccccc3)cc2C(=O)N([C@H](C)CO)C[C@H]1C | inactive: 0.995
COCC(=O)Nc1ccc2c(c1)C(=O)N(C)[C@@H]1CC[C@H](CC(=O)NCc3ccc(OC)cc3)O[C@@H]1CO2 | inactive: 1
CNC(=O)c1c(O)c2ccccc2[nH]c1=O | inactive: 0.971
COc1ccc(S(=O)(=O)Nc2ccc3c(c2)C(=O)N([C@H](C)CO)C[C@@H](C)[C@@H](CN(C)C(=O)Nc2c(C)noc2C)O3)cc1 | inactive: 1
C[C@H]1CN([C@@H](C)CO)C(=O)c2cccc(NS(C)(=O)=O)c2O[C@@H]1CN(C)S(=O)(=O)c1ccc(Cl)cc1 | inactive: 0.999
C[C@H]1CN([C@@H](C)CO)C(=O)c2cc(-c3ccncc3)cnc2O[C@H]1CN(C)C(=O)Nc1ccc2c(c1)OCO2 | inactive: 0.991
C=CCC[C@H](Cc1ccc(F)cc1)C(=O)OC[C@@H]1CCCN1C(=O)[C@@H](CC=C)CC(=O)N(CCO)Cc1ccccc1 | inactive: 1.01
O=C(C[C@H]1C[C@H]2c3cc(NS(=O)(=O)c4ccccc4)ccc3O[C@H]2[C@H](CO)O1)NCC(F)(F)F | inactive: 0.98
C[C@@H]1CN([C@H](C)CO)C(=O)Cc2cc(NC(=O)Nc3ccc(C(F)(F)F)cc3)ccc2O[C@@H]1CN(C)S(=O)(=O)c1ccc(Cl)cc1 | inactive: 1.04
NC[C@@H](O)c1ccc2ccccc2c1 | inactive: 0.983
C=CC(=O)N[C@@H]1CN(c2nc(Nc3cn(C)nc3OC)c3ncn(C)c3n2)C[C@H]1F | inactive: 1.01
O=C(C[C@@H]1CC[C@H]2[C@@H](COC[C@H](O)CN2S(=O)(=O)c2ccc(F)cc2)O1)NCc1ccc(Cl)c(Cl)c1 | inactive: 1.01
C[C@@H]1CCCCO[C@H](CN(C)C(=O)Nc2ccc(C(F)(F)F)cc2)[C@@H](C)CN([C@@H](C)CO)C(=O)c2cc(NC(=O)c3ccncc3)ccc2O1 | inactive: 0.979
CC(=O)N[C@@H]1CC[C@@H](CCNC(=O)C2CC2)O[C@H]1CO | inactive: 0.97
C[C@H](CO)N1C[C@H](C)[C@H](CN(C)Cc2ccc(Oc3ccccc3)cc2)Oc2c(NC(=O)CCCCCC(=O)Nc3ccccc3N)cccc2C1=O | inactive: 1.04
